Laboratory results as given in the supplement of paper PMC3334620.
Over roughly 33,000 sequences, “E-score (-0.5 to 0.5)” has its median near -0.04; the highest 2% begin near 0.36. Some of the results follow.

Molecular target: T1, Hmlalpha2 (UniProt P0CY09)
T1 sequence: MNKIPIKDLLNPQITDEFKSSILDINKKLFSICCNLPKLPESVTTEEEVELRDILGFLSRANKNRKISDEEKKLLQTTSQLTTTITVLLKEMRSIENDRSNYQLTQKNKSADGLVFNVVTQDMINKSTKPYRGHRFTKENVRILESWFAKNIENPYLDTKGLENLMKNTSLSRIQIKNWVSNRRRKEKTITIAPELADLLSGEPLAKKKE
Assay: PBM E-score (8-mer binding enrichment) (E-score (-0.5 to 0.5)); higher = stronger / more preferred TF binding; most listed sequences are background and not binding sites
Conditions: protein concentration: 200 nM; construct: GST-full length
How it was run: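 PURExpress in vitro transcription/translation supplied GST-tagged yeast transcription factors, either full-length or DNA-binding domain. Applied at about 100-200 nM to universal all-10-mer Agilent arrays double-stranded by primer extension, the bound protein was detected with fluorescent anti-GST. E-scores, modified Wilcoxon-Mann-Whitney statistics, were given by the Universal PBM Analysis Suite to ungapped eight-base words pooled with their reverse complements after masliner normalisation.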

Going from CGGACTGA to CGCCCCTA, the “PBM E-score” value rises from -0.27 to -0.159.

Compared with AACAGTAG, ACGACGTC is lower in “PBM E-score” value: 0.129 for the first, -0.169 for the second.

First: CAAGAGAA
Second: CGTACTGA
The “PBM E-score” value of the first is higher: 0.154 for the first, 0.0611 for the second.

Going from ACGGAGCT to AAGCCCCA, the “PBM E-score” value falls from -0.19 to -0.357.

First: ATTTTCTG
Second: ATAACTGC
The “PBM E-score” value of the first is lower: -0.131 for the first, 0.0983 for the second.

Going from AGCAAGTC to ATCTATCG, the “PBM E-score” value falls from -0.0673 to -0.0801.

Compared with GATTCTAA, AAATCGGA is lower in “PBM E-score” value: 0.0651 for the first, -0.121 for the second.

First: GTCATTGA
Second: AAGTCCGG
The “PBM E-score” value of the first is higher: 0.0956 for the first, -0.249 for the second.

First: ACCGCACA
Second: ACCTATTC
The “PBM E-score” value of the first is higher: -0.158 for the first, -0.184 for the second.

First: AAAGGCTA
Second: GCGTCACA
The “PBM E-score” value of the first is lower: -0.152 for the first, -0.138 for the second.

First: CCTCCAAA
Second: ACGTCGGC
The “PBM E-score” value of the first is lower: -0.145 for the first, 0.128 for the second.

Going from AGTAAGAG to AACATAGG, the “PBM E-score” value rises from -0.0366 to 0.38.

First: CACACCGC
Second: TAAACTGA
The “PBM E-score” value of the first is lower: -0.0386 for the first, 0.107 for the second.

Going from ACAAGGGA to ACGCTCGA, the “PBM E-score” value falls from 0.152 to -0.0985.

Compared with AGTTGTAG, GCTGCGCA is lower in “PBM E-score” value: 0.122 for the first, -0.161 for the second.

Compared with AGCTGACA, AGCGGCCT is lower in “PBM E-score” value: 0.133 for the first, -0.243 for the second.

First: CCGTATTC
Second: GCTAAGTA
The “PBM E-score” value of the first is lower: 0.0456 for the first, 0.221 for the second.

Compared with CCTTTGCA, CACGCGTC is higher in “PBM E-score” value: 0.0538 for the first, 0.174 for the second.

Going from GGGTAACA to ATATAATA, the “PBM E-score” value rises from 0.17 to 0.199.

Compared with CGCCATGC, CACGGGGC is higher in “PBM E-score” value: -0.0795 for the first, -0.0642 for the second.

First: CGCCGTGA
Second: AGAGGTCA
The “PBM E-score” value of the first is higher: -0.0727 for the first, -0.192 for the second.

Going from GGGGGACA to CGCCTTAA, the “PBM E-score” value rises from -0.264 to 0.153.

Going from CGTGGAAG to GGTGTGGA, the “PBM E-score” value falls from 0.00434 to -0.101.

Going from CATTCACG to GGACCTAA, the “PBM E-score” value falls from 0.0115 to -0.157.

First: ATCACTTC
Second: AGACCCTC
The “PBM E-score” value of the first is higher: -0.0191 for the first, -0.192 for the second.

First: CCCTTAAC
Second: CACGGGCA
The “PBM E-score” value of the first is lower: -0.0469 for the first, 0.0513 for the second.

Compared with CAGTAACC, AACTTTGT is higher in “PBM E-score” value: -0.0933 for the first, 0.147 for the second.

Going from CTTCTGGC to GGTTATCA, the “PBM E-score” value rises from -0.267 to -0.162.

Going from ATTCCCCA to CTTTTGTA, the “PBM E-score” value rises from -0.166 to 0.191.

First: AGCGAGAC
Second: CTCATGCC
The “PBM E-score” value of the first is higher: -0.201 for the first, -0.23 for the second.

First: ACGACGGG
Second: CCTGGACA
The “PBM E-score” value of the first is higher: 0.0157 for the first, -0.219 for the second.

First: TGCAACCA
Second: GTGGTGAA
The “PBM E-score” value of the first is higher: -0.0594 for the first, -0.123 for the second.

First: CCTAGTAC
Second: CCAGGCAA
The “PBM E-score” value of the first is higher: 0.134 for the first, -0.265 for the second.

First: CTGCACCA
Second: CGTTCAAA
The “PBM E-score” value of the first is lower: -0.239 for the first, 0.0795 for the second.

First: AGTTCCTG
Second: CATTGCGA
The “PBM E-score” value of the first is lower: -0.266 for the first, 0.0418 for the second.

Compared with AATCTGAT, TGGCTCAA is lower in “PBM E-score” value: 0.0185 for the first, -0.206 for the second.

Compared with CCTCTTAC, GGGTTAAC is higher in “PBM E-score” value: -0.00492 for the first, 0.185 for the second.

Going from AGCAAACA to CCAGGTCA, the “PBM E-score” value falls from 0.104 to -0.0431.

Compared with CAGCGTCA, GGATTCCC is lower in “PBM E-score” value: -0.195 for the first, -0.312 for the second.

Going from CATTGAGA to ACTACCTA, the “PBM E-score” value rises from -0.0624 to 0.167.

First: GCTCTGCC
Second: CCCTAGCA
The “PBM E-score” value of the first is lower: -0.162 for the first, -0.125 for the second.

Going from GTGTAGAA to CTATAGAC, the “PBM E-score” value falls from 0.445 to -0.156.

Compared with CGACGAAG, GGTTTGCA is higher in “PBM E-score” value: -0.00856 for the first, 0.0728 for the second.

First: AGCTTGGG
Second: AATTACCC
The “PBM E-score” value of the first is lower: -0.235 for the first, -0.0352 for the second.

First: CCAAAGCA
Second: CCAGAACC
The “PBM E-score” value of the first is higher: -0.0847 for the first, -0.116 for the second.

Compared with GAAATGAA, CAGAATGA is lower in “PBM E-score” value: 0.135 for the first, -0.188 for the second.

Compared with ATCCTTGC, AACCATTG is higher in “PBM E-score” value: -0.0705 for the first, 0.159 for the second.

Compared with AGCCATAC, TGCACAAA is higher in “PBM E-score” value: -0.142 for the first, 0.104 for the second.

Compared with CCCGGATC, CAGGGTCG is lower in “PBM E-score” value: -0.176 for the first, -0.266 for the second.

Compared with CTCTTTTA, AGGTTCCG is higher in “PBM E-score” value: -0.152 for the first, -0.123 for the second.

Compared with AAAGATCC, CTTTTTAC is higher in “PBM E-score” value: -0.15 for the first, 0.274 for the second.

Compared with AAGATCGT, ATGGTAAA is higher in “PBM E-score” value: -0.0468 for the first, 0.185 for the second.

Going from CGGAATAA to CACTGCAC, the “PBM E-score” value rises from -0.0527 to 0.0538.

First: AGTTCTTG
Second: ATGGCAAC
The “PBM E-score” value of the first is higher: 0.23 for the first, 0.15 for the second.

For GAATGGTA, the “PBM E-score” value was 0.232.
